Results reported in PMC10009787 (ACS Medicinal Chemistry Letters, 2023).
Like-named read-outs stand apart in the source and are kept apart here.

What was measured:
Assay in all cases: SelectScreen kinase profiling / Z′-Lyte kinase assay
BTK = BTK (Homo sapiens, UniProt Q06187)
SRC = SRC (Homo sapiens, UniProt P12931)
BLK = BLK (Homo sapiens, UniProt P51451)
Sequence of UniProt P51451 (P51451 whole entry): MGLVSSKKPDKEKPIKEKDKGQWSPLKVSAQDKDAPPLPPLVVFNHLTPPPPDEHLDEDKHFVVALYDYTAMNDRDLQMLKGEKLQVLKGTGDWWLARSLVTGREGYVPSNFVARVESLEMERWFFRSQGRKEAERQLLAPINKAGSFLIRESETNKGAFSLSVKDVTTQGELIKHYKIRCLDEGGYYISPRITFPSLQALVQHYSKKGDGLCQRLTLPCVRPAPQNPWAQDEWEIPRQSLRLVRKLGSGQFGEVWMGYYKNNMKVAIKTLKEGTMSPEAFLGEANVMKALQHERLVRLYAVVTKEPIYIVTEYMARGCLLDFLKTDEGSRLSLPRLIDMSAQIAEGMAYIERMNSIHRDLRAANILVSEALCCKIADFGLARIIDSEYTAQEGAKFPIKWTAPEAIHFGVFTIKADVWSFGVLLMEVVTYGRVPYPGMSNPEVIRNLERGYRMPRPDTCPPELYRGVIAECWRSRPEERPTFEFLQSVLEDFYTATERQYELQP

Sequence of UniProt P12931 (P12931 whole entry): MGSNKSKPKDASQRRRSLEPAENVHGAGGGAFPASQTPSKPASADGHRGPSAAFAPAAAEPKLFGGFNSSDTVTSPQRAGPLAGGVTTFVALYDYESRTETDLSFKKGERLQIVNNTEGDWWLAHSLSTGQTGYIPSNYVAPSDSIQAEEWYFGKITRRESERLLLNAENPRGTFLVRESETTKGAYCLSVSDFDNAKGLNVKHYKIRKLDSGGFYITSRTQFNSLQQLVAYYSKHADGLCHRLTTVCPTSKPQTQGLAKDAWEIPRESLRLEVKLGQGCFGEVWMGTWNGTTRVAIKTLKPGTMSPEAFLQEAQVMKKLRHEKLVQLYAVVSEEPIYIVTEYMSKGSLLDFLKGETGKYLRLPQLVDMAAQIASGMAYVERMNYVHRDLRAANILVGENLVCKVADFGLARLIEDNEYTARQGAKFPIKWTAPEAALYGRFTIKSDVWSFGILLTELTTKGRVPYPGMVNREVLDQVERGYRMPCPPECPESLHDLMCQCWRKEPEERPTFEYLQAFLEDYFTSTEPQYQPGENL
Sequence of UniProt Q06187 (Q06187 whole entry): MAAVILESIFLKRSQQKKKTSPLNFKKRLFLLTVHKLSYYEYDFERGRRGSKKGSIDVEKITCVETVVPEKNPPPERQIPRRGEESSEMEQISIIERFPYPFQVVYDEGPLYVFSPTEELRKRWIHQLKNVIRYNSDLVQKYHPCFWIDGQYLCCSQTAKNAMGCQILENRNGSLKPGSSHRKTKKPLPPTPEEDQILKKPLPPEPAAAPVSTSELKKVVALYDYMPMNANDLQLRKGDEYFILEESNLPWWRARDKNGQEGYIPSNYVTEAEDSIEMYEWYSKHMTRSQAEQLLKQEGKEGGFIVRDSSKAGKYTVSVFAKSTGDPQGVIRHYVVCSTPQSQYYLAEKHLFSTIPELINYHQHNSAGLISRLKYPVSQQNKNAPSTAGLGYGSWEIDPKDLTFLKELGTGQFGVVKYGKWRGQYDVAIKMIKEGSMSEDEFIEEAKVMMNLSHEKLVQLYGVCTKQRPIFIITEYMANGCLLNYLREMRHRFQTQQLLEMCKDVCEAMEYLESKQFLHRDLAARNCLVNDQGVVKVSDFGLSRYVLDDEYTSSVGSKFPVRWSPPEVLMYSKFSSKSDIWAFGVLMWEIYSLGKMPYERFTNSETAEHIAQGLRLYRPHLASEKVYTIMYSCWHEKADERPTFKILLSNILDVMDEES

Hillslope (BTK; BTK IC50 curve): 1.84 | inhibition at 0.000495 µM (BTK; read-out: % Inhibition Point 1): 32% | inhibition at 0.00152 µM (BTK; read-out: % Inhibition Point 1): 73% | inhibition at 0.00457 µM (BTK; read-out: % Inhibition Point 1): 93% | inhibition at 0.0137 µM (BTK; read-out: % Inhibition Point 1): 99% | inhibition at 0.0412 µM (BTK; read-out: % Inhibition Point 1): 97% | inhibition at 0.123 µM (BTK; read-out: % Inhibition Point 1): 98% | inhibition at 0.37 µM (BTK; read-out: % Inhibition Point 1): 100% | inhibition at 1.11 µM (BTK; read-out: % Inhibition Point 1): 100% | inhibition at 3.33 µM (BTK; read-out: % Inhibition Point 1): 100% | inhibition at 10 µM (BTK; read-out: % Inhibition Point 1): 123% | inhibition at 0.000495 µM (BTK; read-out: % Inhibition Point 2): 39% | inhibition at 0.00152 µM (BTK; read-out: % Inhibition Point 2): 75% | inhibition at 0.00457 µM (BTK; read-out: % Inhibition Point 2): 95% | inhibition at 0.0137 µM (BTK; read-out: % Inhibition Point 2): 98% | inhibition at 0.0412 µM (BTK; read-out: % Inhibition Point 2): 98% | inhibition at 0.123 µM (BTK; read-out: % Inhibition Point 2): 100% | inhibition at 0.37 µM (BTK; read-out: % Inhibition Point 2): 98% | inhibition at 1.11 µM (BTK; read-out: % Inhibition Point 2): 97% | inhibition at 3.33 µM (BTK; read-out: % Inhibition Point 2): 101% | inhibition at 10 µM (BTK; read-out: % Inhibition Point 2): 96% | Hillslope (SRC; SRC IC50 curve): 0.99 | inhibition at 0.000495 µM (SRC; read-out: % Inhibition Point 1): 10% | inhibition at 0.00152 µM (SRC; read-out: % Inhibition Point 1): 17% | inhibition at 0.000495 µM (SRC; read-out: % Inhibition Point 2): 13% | inhibition at 0.00152 µM (SRC; read-out: % Inhibition Point 2): 15% | inhibition at 0.00457 µM (SRC; read-out: % Inhibition Point 2): 22% | Hillslope (BLK; BLK IC50 curve): 1.06 | inhibition at 0.000495 µM (BLK; read-out: % Inhibition Point 1): 23% | inhibition at 0.00152 µM (BLK; read-out: % Inhibition Point 1): 55% | inhibition at 0.00457 µM (BLK; read-out: % Inhibition Point 1): 74% | inhibition at 0.0137 µM (BLK; read-out: % Inhibition Point 1): 99% | inhibition at 0.0412 µM (BLK; read-out: % Inhibition Point 1): 94% | inhibition at 0.123 µM (BLK; read-out: % Inhibition Point 1): 101% | inhibition at 0.37 µM (BLK; read-out: % Inhibition Point 1): 98% | inhibition at 1.11 µM (BLK; read-out: % Inhibition Point 1): 97% | inhibition at 3.33 µM (BLK; read-out: % Inhibition Point 1): 101% | inhibition at 10 µM (BLK; read-out: % Inhibition Point 1): 97% | inhibition at 0.000495 µM (BLK; read-out: % Inhibition Point 2): 23% | inhibition at 0.00152 µM (BLK; read-out: % Inhibition Point 2): 58% | inhibition at 0.00457 µM (BLK; read-out: % Inhibition Point 2): 75% | inhibition at 0.0137 µM (BLK; read-out: % Inhibition Point 2): 88% | inhibition at 0.0412 µM (BLK; read-out: % Inhibition Point 2): 96% | inhibition at 0.123 µM (BLK; read-out: % Inhibition Point 2): 99% | inhibition at 0.37 µM (BLK; read-out: % Inhibition Point 2): 101% | inhibition at 1.11 µM (BLK; read-out: % Inhibition Point 2): 102% | inhibition at 3.33 µM (BLK; read-out: % Inhibition Point 2): 103% | inhibition at 10 µM (BLK; read-out: % Inhibition Point 2): 99%
SMILES: C=CC(=O)N1CCC[C@@H](n2nc(-c3ccc(Oc4ccccc4)cc3C)c3c(N)ncnc32)C1 [Compound 2, (R)-1-(3-(4-amino-3-(2-methyl-4-phenoxyphenyl)-1H-pyrazolo[3,4-d]pyrimidin-1-yl)piperidin-1-yl)prop-2-en-1-one]
